Test [1] relates to Herpes simplex Virus 1. In words: microbe, parasite or virus in culture. The conditions noted are these: Human alphaherpesvirus 1, read-out: MHK (Minimale Hemmkonzentration).
The subject of a further test is Herpes simplex Virus 2. The test can be described thus: microbe, parasite or virus in culture. The note with it: Human alphaherpesvirus 2, read-out: MHK (Minimale Hemmkonzentration).
The next test relates to Vaccinia Virus. In words: microbe, parasite or virus in culture. The note with it: Orthopoxvirus vaccinia, read-out: MHK (Minimale Hemmkonzentration).
Test [2] relates to Vesikular Stomatitis Virus. The test can be described thus: microbe, parasite or virus in culture. The conditions noted are these: Vesicular stomatitis virus, read-out: MHK (Minimale Hemmkonzentration).
In test [3] the test system is Herpes simplex Virus 1. In words: In vivo HSV-1 infection of NMRI mice, survival. Details: species or system NMRI-Mäuse. The note with it: first dose 3 h after infection, twice daily, observation two weeks.
Where [4] appears, read: intraperitoneal, 9 x 10 µmol/kg.
Setting [5] is: intraperitoneal, 9 x 30 µmol/kg.
Where [6] appears, read: intraperitoneal, 9 x 100 µmol/kg.

In brackets after ≈: the same amount, converted by molar mass. Bounds are passed on as bounds.

Turning to `CC(C)OCC(COC(C)C)OCn1cnc2nc(N)ncc21` [Beispiel 6.7., 2-Amino-7-[1,3-bis(isopropoxy)-2-propoxymethyl]purin], the MIC (in the test on Herpes simplex Virus 1 [1]; with Herpes simplex Virus 2; in the test on Vaccinia Virus; in test [2]) was above 400 µg/mL throughout. In the test with Herpes simplex Virus 1 [3] (setting [4]), the “mittlere Überlebenszeit” value was 7.0 +/- 0.0 Tage. In addition, the Überlebende / gesamt in the test with Herpes simplex Virus 1 [3] (setting [4]) is given as 4 / 5; in the test with Herpes simplex Virus 1 [3] (setting [5]), 5 / 5; in the test on Herpes simplex Virus 1 [3] (setting [6]), 5 / 5; in the test on Herpes simplex Virus 1 [3] (oral, 9 x 10 µmol/kg), 5 / 5; in the test on Herpes simplex Virus 1 [3] (oral, 9 x 30 µmol/kg) it was 5 / 5; in the test with Herpes simplex Virus 1 [3] (oral, 9 x 100 µmol/kg), 5 / 5.
In the case of `Nc1ncc2c(ncn2COC(CO)CO)n1` [Beispiel 6.12., 2-Amino-7-(1,3-dihydroxy-2-propoxymethyl)-purin], the MIC in the test with Herpes simplex Virus 1 [1] is 1.65 µg/mL (≈ 6.9 µM); with Herpes simplex Virus 2 it was 1.65 µg/mL (≈ 6.9 µM); in the test on Vaccinia Virus, 4.94 µg/mL (≈ 20.6 µM); in test [2], above 400 µg/mL. Further, the Überlebende / gesamt is listed as 5 / 5 in the test with Herpes simplex Virus 1 [3] (setting [4]); 5 / 5 in the test with Herpes simplex Virus 1 [3] (setting [5]); 5 / 5 in the test with Herpes simplex Virus 1 [3] (setting [6]); 2 / 5 in the test with Herpes simplex Virus 1 [3] (oral, 9 x 10 µmol/kg); 5 / 5 with Herpes simplex Virus 1 [3] (oral, 9 x 30 µmol/kg); 5 / 5 with Herpes simplex Virus 1 [3] (oral, 9 x 100 µmol/kg). In addition, the “mittlere Überlebenszeit” value in the test on Herpes simplex Virus 1 [3] (oral, 9 x 10 µmol/kg) was 8.3 +/- 1.5 Tage.
Regarding `Nc1nc2ncn(COC(CO)CO)c2c(=O)[nH]1` [reference compound], the MIC (with Herpes simplex Virus 1 [1]; in the test with Herpes simplex Virus 2; with Vaccinia Virus; in test [2]) was above 400 µg/mL each time. The “mittlere Überlebenszeit” value in the test with Herpes simplex Virus 1 [3] (setting [4]) is given as 10.0 +/- 1.4 Tage; with Herpes simplex Virus 1 [3] (setting [5]) it was 10.0 +/- 0.0 Tage; with Herpes simplex Virus 1 [3] (setting [6]) it was 9.3 +/- 2.1 Tage; with Herpes simplex Virus 1 [3] (oral, 9 x 10 µmol/kg), 6.5 +/- 2.1 Tage; in the test on Herpes simplex Virus 1 [3] (oral, 9 x 30 µmol/kg), 8.5 +/- 0.7 Tage; in the test with Herpes simplex Virus 1 [3] (oral, 9 x 100 µmol/kg), 9.0 +/- 1.4 Tage. Besides, the Überlebende / gesamt is 3 / 5 in the test with Herpes simplex Virus 1 [3] (setting [4]); 4 / 5 with Herpes simplex Virus 1 [3] (setting [5]); 2 / 5 in the test on Herpes simplex Virus 1 [3] (setting [6]); 3 / 5 in the test with Herpes simplex Virus 1 [3] (oral, 9 x 10 µmol/kg); 3 / 5 with Herpes simplex Virus 1 [3] (oral, 9 x 30 µmol/kg); 3 / 5 with Herpes simplex Virus 1 [3] (oral, 9 x 100 µmol/kg).
With `CC(C)OCC(CO)OCn1cnc2nc(N)ncc21` (stereo not drawn) [Beispiel 6.10., 2-Amino-7-(1-hydroxy-3-isopropoxy-2-propoxymethyl)-purin], the MIC (in the test with Herpes simplex Virus 1 [1]; with Herpes simplex Virus 2; in the test with Vaccinia Virus; in test [2]) was above 400 µg/mL throughout. Besides, the “mittlere Überlebenszeit” value with Herpes simplex Virus 1 [3] (setting [4]) is on record as 10.0 +/- 1.4 Tage; with Herpes simplex Virus 1 [3] (oral, 9 x 10 µmol/kg) it was 10.0 +/- 0.0 Tage. Besides, the Überlebende / gesamt in the test with Herpes simplex Virus 1 [3] (setting [4]) is 3 / 5; in the test with Herpes simplex Virus 1 [3] (setting [5]), 5 / 5; with Herpes simplex Virus 1 [3] (setting [6]) it was 5 / 5; with Herpes simplex Virus 1 [3] (oral, 9 x 10 µmol/kg) it was 4 / 5; with Herpes simplex Virus 1 [3] (oral, 9 x 30 µmol/kg) it was 5 / 5; in the test on Herpes simplex Virus 1 [3] (oral, 9 x 100 µmol/kg), 5 / 5.
Take `Nc1nc2c(ncn2COC(CO)CO)c(=O)[nH]1` [reference compound]: the MIC is 4.94 µg/mL (≈ 19.4 µM) in the test on Herpes simplex Virus 1 [1], 1.65 µg/mL (≈ 6.46 µM) with Herpes simplex Virus 2, above 400 µg/mL in the test with Vaccinia Virus and 133 µg/mL (≈ 522 µM) in test [2].

The values above are taken from patent EP0452680A1 (priority 1990, dated 1991).
